Sequences and labels used below:
B1: LINE1-mini (parent)
chain: GGCAGAGCUCAACACAGCGUGGCAAAGUGGCUGUGGCUAGACUGCC

Consider 167 variants from the RNAGym collection of RNA variant scans (doi:10.7554/elife.90254).

Read counts are not given, so values of variants with three or more changes are uncertain.

In this data set the parent is B1. Kind of data set: self-cleavage, relative activity (ratio to wild type); higher = more cleavage; in vitro, sequencing; the parent is a self-cleaving ribozyme.
As to A11G A16C C46U, the self-cleavage turned out to be 0.01.
As for A11U C13U C31A, the figure is 0.03; as for A11C G19U U20G C23A C45U, 0.13; as for C10U G22C A41C, 0.02.
Regarding A11C U38G G40U, the self-cleavage was found to be 0.01.
With A11C U20G G40A C45A, the self-cleavage worked out at 0.01.
For the variant A11C C23A C42A C45A, the self-cleavage is 0.
As for A11U A26U C31U, the self-cleavage turned out to be 0.12.
As for A11C G30C C42A U43G, the figure is 0.01; as for C10U U32A U38A, 0.02.
On to C10U U32A U38G, for which the self-cleavage stood at 0.
As for C10U G21U C23G A26U, the self-cleavage came to 0.24.
On to A11U C15U G19C C23A, for which the self-cleavage was 0.15.
In the case of C10U U20C C45G, the self-cleavage worked out at 0.01.
For the variant A11G U32A G40A, the self-cleavage is 0.03.
A11G A16G C42A: the self-cleavage was found to be 0.01.
The result for C10U G29A C31G reads 0.25.
For A11U C18A G21U G30C C31G G40C, the self-cleavage is 0.
A11U A24C G35C C45U: the self-cleavage stood at 0.01.
Take A11G A12G C42G: the self-cleavage worked out at 0.03.
The result for A11G A25U C45A reads 0.02; that for A11C C23A U32A C37U, 0.01.
Regarding A11G U20G G36C G40U, the self-cleavage is 0.01.
The result for A11U A25U U28C C31U C46A reads 0.08; that for A11G G17C G44U, 0.02; that for A11C A12C G40C A41U G44A, 0.01.
Take A11C A12C U32A: the self-cleavage came to 0.03.
As for A11G C13U G33A C37U, the figure is 0.03; as for C10U C18U A26G, 0.53; as for C10U G35A G36U C37A C42A, 0.04.
In the case of A11U A25G C37U, the self-cleavage was determined as 0.
In the case of A11U C23G C42U, the self-cleavage amounted to 0.01.
As for C10U G29U G36U G44A, the self-cleavage is 0.01.
As to A11G G17A G27C A39G, the self-cleavage was determined as 0.02.
On to A11C G22U C23A, for which the self-cleavage was found to be 0.05.
In the case of A11G C15U G36A, the self-cleavage turned out to be 0.01.
For the variant A11C G27A G35A, the self-cleavage is 0.
Consider C10U G27A G40U, for which the self-cleavage was 0.01.
On to C10U G19C G22U U28G G29U C42U, for which the self-cleavage amounted to 0.07.
Take A11U C15G A16G: the self-cleavage was 0.02.
The result for A11G C15G G36C reads 0.01.
Regarding C10U G21A A39G, the self-cleavage was 0.17.
In the case of A11G U43G C45U, the self-cleavage came out at 0.01.
Consider A11C U20C U34C, for which the self-cleavage was 0.02.
Regarding C10U G29U G40C C46A, the self-cleavage was 0.04.
Take A11C C18G G19U: the self-cleavage was 0.01.
Take A11U A39U C42A: the self-cleavage is 0.
For the variant C10U G21U A41C, the self-cleavage stood at 0.05.
C10U G21U A41U: the self-cleavage was determined as 0.14.
Regarding A11G C13A G27U, the self-cleavage is 0.03.
In the case of C10U G17A A25C G30U, the self-cleavage amounted to 0.02.
Turning to A11C A24C C31A U38G, the self-cleavage turned out to be 0.
As for A11G G17U A24C G40A G44A C45U, the figure is 0; as for A11C G22U G30A G44U, 0.02.
As to A11U C18A C42U, the self-cleavage turned out to be 0.05.
C10U G33A G36A: the self-cleavage came to 0.03.
The result for A11U C15A A16G U20A U43C reads 0.01.
Regarding A11U C18U A26C U43A, the self-cleavage is 0.
As for A11U A12C C15U A24G A41C, the figure is 0.
As for A11C G19A C31A, the self-cleavage was found to be 0.01.
On to A11G C15G G17C, for which the self-cleavage came to 0.01.
The result for A11C G21U G27A U43G reads 0; that for C10U G21C G27A U34C, 0.16; that for A11U C23G C46A, 0.09.
With A11C U20A A39C, the self-cleavage came out at 0.01.
As to A11G A14U A16U, the self-cleavage came to 0.03.
Turning to A11C G22C G30A, the self-cleavage stood at 0.07.
On to A11U C13A G27A C31A G35A C42A U43G, for which the self-cleavage amounted to 0.01.
As for A11C G21U G22C A39C, the figure is 0.01.
As to A11G G17A G44A, the self-cleavage worked out at 0.04.
Take A11C A14C G33U C46U: the self-cleavage is 0.
C10U G17A C37A A39G C45G: the self-cleavage was 0.03.
Consider A11U A16G U20C C42G U43C, for which the self-cleavage turned out to be 0.
As for A11G C23G G36U C42A, the figure is 0; as for A11C U20C A41C, 0.02; as for C10U C37G C45U, 0.02.
Turning to A11C G22A C23U A26C G35C, the self-cleavage was 0.04.
C10U G36A U38C: the self-cleavage was 0.03.
As to A11G C18G G21U, the self-cleavage turned out to be 0.03.
Take A11U A14C C37A: the self-cleavage was found to be 0.
With A11C C15A C18U G22A, the self-cleavage was 0.02.
A11G C18U G36A C45G: the self-cleavage came to 0.02.
Consider A11G U28G C42A U43A, for which the self-cleavage was 0.02.
Consider A11C C13A C42G, for which the self-cleavage came to 0.02.
For A11G C15G C23A, the self-cleavage came to 0.
For the variant A11C A26U G30U, the self-cleavage was 0.
In the case of A11U A26G G29C, the self-cleavage came to 0.04.
As for A11C C13U G19C G40A G44C, the figure is 0.01.
As to A11C C13G G27U G44C, the self-cleavage amounted to 0.01.
As for A11G A24G G30C G35U, the figure is 0.02.
As for C10U G22C U28A C42G, the self-cleavage was 0.01.
As for A11C C15G C18G C23G U28G U32C, the figure is 0; as for C10U G21A C46A, 0.6; as for C10U G22A U28A G36A U43C, 0.03.
In the case of A11G G35U A39U, the self-cleavage is 0.04.
Regarding C10U G29U U34G, the self-cleavage is 0.69.
For A11U A26C U34C C42A C46A, the self-cleavage was 0.05.
For C10U C31A G33U U38C, the self-cleavage came to 0.01.
A11U C23A U28A A39G G44U: the self-cleavage came out at 0.
As to C10U U20A G36A, the self-cleavage worked out at 0.02.
C10U U20A G36U: the self-cleavage worked out at 0.01.
For the variant A11G A12U G27U, the self-cleavage was 0.02.
A11U A14G C23G: the self-cleavage turned out to be 0.05.
C10U G30U C31U G33U: the self-cleavage was found to be 0.02.
Take C10U G27A G36A: the self-cleavage turned out to be 0.02.
Regarding A11U A24C G33U G44U C46U, the self-cleavage is 0.03.
Take A11C U20A C23A G36C: the self-cleavage worked out at 0.01.
Regarding A11C G19A A24C G35C C37G G44C, the self-cleavage worked out at 0.
In the case of A11G C13A G36U C37U, the self-cleavage stood at 0.03.
Turning to A11C A26G C45G, the self-cleavage worked out at 0.
For the variant A11C U34G C37U A39C, the self-cleavage worked out at 0.01.
Take A11U A12C G22A C31U C37A U38G C46U: the self-cleavage is 0.01.
In the case of A11C G29C G30U U32G, the self-cleavage is 0.01.
For A11U A12C G33A C45A, the self-cleavage amounted to 0.01.
As to A11U A14U U20A C31U C46A, the self-cleavage stood at 0.03.
Take A11G G19C U28A C37U A39C G44U: the self-cleavage stood at 0.01.
With A11C G17A G19U, the self-cleavage amounted to 0.03.
In the case of A11C A12G C13G U28G G33U, the self-cleavage worked out at 0.01.
C10U G27C C31A C42G: the self-cleavage worked out at 0.02.
Turning to A11U A16C U38G, the self-cleavage was 0.02.
Take A11C G21U A39G: the self-cleavage is 0.08.
As for C10U U20A U38C, the self-cleavage was found to be 0.18.
For A11G U28A C31U U43C, the self-cleavage was found to be 0.01.
For the variant A11C A12G G30U G44C, the self-cleavage came to 0.04.
Regarding A11U C15A C23U G33C, the self-cleavage worked out at 0.01.
As for A11U C13U A14U G19A, the figure is 0.01.
The result for C10U G21U U28A G29C C37A reads 0.01; that for A11C C18G U34C U38C, 0.02; that for A11C G21U G35U, 0.03.
As to A11G A16U A24U G29U, the self-cleavage amounted to 0.04.
For C10U G27U G30C, the self-cleavage was 0.37.
For A11U C13G A25G, the self-cleavage amounted to 0.04.
Take C10U G21C G22A: the self-cleavage came out at 0.27.
As for A11C U20A C42A, the self-cleavage was determined as 0.
A11U C15G G19A G29U G44C C46A: the self-cleavage stood at 0.02.
Consider A11G C15G C18G G29U, for which the self-cleavage is 0.02.
The result for C10U G22A C31U U32A U38A reads 0.06; that for A11U A24U U32G, 0.
The result for A11C C15A A24C A26U reads 0.
As for C10U G22U A24U G35U, the figure is 0.03; as for A11G C13G G36U G40C, 0.01; as for A11G C13G C15G A16U A24G G33A, 0.02.
On to A11G A12C C18A U28C U34C G40C, for which the self-cleavage stood at 0.01.
Consider A11C A12G G17U G30U C46G, for which the self-cleavage was found to be 0.04.
For A11C U32G G33A, the self-cleavage turned out to be 0.02.
In the case of A11U C13U C18U, the self-cleavage was found to be 0.05.
Take A11U C13G C18A: the self-cleavage turned out to be 0.03.
Turning to C10U U20G G22U, the self-cleavage turned out to be 0.11.
As for A11G G17A C23U C31U G33C, the figure is 0; as for A11C G19A G22C, 0.03.
For A11C C18G G27A C45G, the self-cleavage turned out to be 0.01.
Take A11G A12G G36A: the self-cleavage came to 0.02.
With A11G G21C G29A U32G A41G, the self-cleavage was 0.01.
Take C10U U20A A41C: the self-cleavage worked out at 0.05.
The result for C10U G36A C42A reads 0.
For the variant A11C G19C C45U, the self-cleavage was determined as 0.03.
Take A11C G17A A24G G29U C37U: the self-cleavage was determined as 0.
The result for A11U C13G C15G U32C reads 0.01; that for C10U G17U G21A C31A G44A, 0.25; that for C10U G22A A25G A41G, 0.01.
Take C10U U38A A39U: the self-cleavage stood at 0.09.
In the case of A11G G27A U28G G33A, the self-cleavage came out at 0.01.
On to A11G A16G C18A G30A G33U, for which the self-cleavage worked out at 0.02.
The result for C10U C18U C46A reads 0.47; that for A11C A12G C37A G44U, 0; that for A11C G17U G33C G36U C37A A39U C42A C45A, 0.
For the variant C10U G17U A26U C31U, the self-cleavage amounted to 0.06.
